Measured values taken from PubChem BioAssay AID686979 (National Center for Advancing Translational Sciences (NCATS), 2013).
Several values for one entry are separate records, joined by “and”; a condition that tells them apart may be missing. Equal entries are not always repeated. Among all 420,000 compounds or so, about 50,000 (12%) were called active. The shares of active, inactive and inconclusive entries below differ from those in the screen. Calls follow the shape of the dose curve; as a rule, active = well fitted inhibition curve with a large enough effect; inconclusive = small, poorly fitted or top-dose-only effect; inactive = flat fitted curve, though single readings scatter. Potencies of inconclusive entries are left out as doubtful fits.

Test: qHTS for Inhibitors of human tyrosyl-DNA phosphodiesterase 1 (TDP1): qHTS in cells in presence of CPT; also: nearly all actives have a fitted effect of over 55% in size
Settings: chicken DT40 Tdp1-/-;hTDP1 cells + 20 nM CPT, ATP luminescence, 48 h; activity change, negative = growth inhibition: at 46.2 µM (top of the series)
Method in brief: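 Chicken DT40 Tdp1-/- cells complemented with human TDP1, 400 cells/well, exposed to compounds plus 20 nM camptothecin for at least 48 h at 37 C; viability read as ATP content by CellTiter-Glo luminescence.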
% is scaled to controls: 0 for no effect and ±100 for the full control effect; potency is read from the fitted curve at half-maximal effect; tags tell the direction and shape of the fitted curve.

Compound | Potency | activity change, negative = growth inhibition
CC(=O)OCC(OC(C)=O)C(OC(C)=O)C(OC(C)=O)C(=O)Nc1cccc(C)c1 (configuration not stated) | inactive | 
CC(=O)NCCOc1nc(N(C)C)nc(N2CCCCC2)n1 | inactive | 
NC(=O)COc1ccc2c3c(c(=O)oc2c1)CCCCC3 | inactive | 
CN(CC(=O)N1CCc2ccccc2C1)c1ccccc1 | inactive | 
COc1ccccc1CNC(=O)c1cc(S(=O)(=O)N2CCN(c3ccccc3)CC2)ccc1Cl | inconclusive [inhibitor, single point] | 
COc1ccc(/C=C(\C#N)C(=O)Nc2cc(C)c(Cl)cc2OC)cc1O | inconclusive [inhibitor, single point] | 
O=C(c1ccc(Cl)nc1)c1cccs1 | inactive | 
CCc1ccc(CN(Cc2ccco2)c2cnc(S(C)(=O)=O)nc2C(=O)Nc2ccccc2Cl)cc1 | inconclusive [inhibitor, single point] | 
CCn1ncc(/C=N\NC(=O)c2csc3ccccc23)c1C | active: 2.59 µM | 
Nc1c(C(=O)Nc2ccc3c(c2)OCCO3)nnn1Cc1cccc(Br)c1 | inconclusive [inhibitor, single point] | 
CCc1nnc(SC(CC)C(=O)Nc2cccc(OC)c2)c2cc3oc(C)cc3n12 (configuration not stated) | inconclusive [inhibitor, single point] | 
Fc1ccc(Nc2c3c(nc4ccccc24)CCC3)cc1 | active: 20.6 µM and active: 5.17 µM | 
COc1ccc(CC(=O)Nc2cccc(S(=O)(=O)N3CCCCCC3)c2)cc1OC | active: 6.51 µM | 
CC1CCN(C(=O)c2ncn3c2c(=O)[nH]c2ccc(Br)cc23)CC1 | inactive | 
COC(=O)c1scc(-c2ccc(C)cc2)c1S(=O)(=O)N1CCN(c2cccc(OC)c2)CC1 | active: 9.2 µM | 
CCCc1nc2ccccc2c(=O)n1CC(=O)c1ccc(F)cc1 | inconclusive [inhibitor, single point] | 
COc1ccc(CNC(=O)CCC(=O)N2CCN(S(=O)(=O)c3cc([N+](=O)[O-])ccc3C)CC2)cc1 | inactive | 
COc1cccc(-c2cnc3c(NC(C)=O)cc(-c4cccc(C(=O)N(C)C)c4)cn23)c1 | inconclusive [inhibitor, partial curve] | 
COc1ccc(S(=O)(=O)N2CCN(C(=O)c3ccc(NC(C)=O)cc3)CC2)cc1 | inactive | 
COc1cc(C)ccc1NC(=O)Cc1csc(NC(=O)Nc2ccccc2OC)n1 | active: 23.1 µM | 
Nc1ccc2c(c1)-c1ccccc1S(=O)(=O)N2 |  | inconclusive: -32.7% [inhibitor]
COc1ccc(OC)c(S(=O)(=O)n2cnc3cc(C)c(C)cc32)c1 | inconclusive [inhibitor, single point] | 
